# ± gives the standard deviation of the averaged measurements. The list shows a part of the results.
# Test system: PfAP2-I AP2 domain 3 (GST-tagged)
# Experiment: gcPBM binding intensity (ln(normalized median fluorescence intensity)); higher = stronger DNA binding
# Outline: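 Plasmodium falciparum DNA-binding domains carrying a GST tag were expressed in E. coli and applied for 1 h, at about 25 μg on average, to an Agilent 4 × 180k array. The array held primer-extended double-stranded 36-bp intergenic genomic probes together with negative controls, and binding took place in 1× PBS with 1% milk, 0.2 mg/ml BSA, 0.5% salmon testes DNA and 0.03% Triton X-100. An Alexa488 anti-GST antibody detected bound protein, and the array was scanned at 488 nm. Binding intensity is taken as the highest Masliner-normalised natural-log median intensity across replicate spots of either probe orientation.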
row,Sequence,gcPBM binding intensity (ln)
1,AAAGAAAATTCAATAGTGCATAAAAATATATATGTT [GTGCAC_site9680],10.7 ± 0.44
2,ACAGATGATCAAAATTGTACAGAGTTATATTATATT [XGTACX_site4642],7.57 ± 0.52
3,TTATTTAAAAATAGCACACATTATATATATATATAT [CACACA_site5556],9.15 ± 0.2
4,CTTATACAAAAAAAAAGTACATAACATAATAAGAAT [XGTACX_site6782],8.15 ± 0.43
5,GATAAACCATATATAACACACATATGAATATTGCAA [CACACA_site6735],8.03 ± 0.52
6,ATATCATATATAAGTCGTACGATGAATAGAATTTTT [XGTACX_site7586],7.74 ± 0.65
7,CACCCATACAGACATACACACACATATATATTAATA [CACACA_site8077],8.12 ± 0.5
8,ATACACTAGAAAATTTTATAGTATTATTAATGTTAA [GTGCAC_negctrl_site101],7.5 ± 0.54
9,TTTTTATTCGTTAAATGTACAAAAAAAATGTTATAT [XGTACX_site2804],7.92 ± 0.39
10,GCTTAGTTATATAACTGTACTATTTTTATTTATATG [XGTACX_site884],8 ± 0.4
11,AATAAGATAAGGAAAAGTACTTATAATTAAACTAAT [XGTACX_site1850],8.41 ± 0.65
12,CTCATAGTTGGGTGCACACAAAAAATTAAAAAAATA [CACACA_site3032],11.1 ± 0.81
13,AAATATAAGTAAATAAATAAATATATAAATATATAA [TGCATGCA_negctrl_site441],7.13 ± 0.45
14,AAATACATACATTAATGTACAAATAGAAACACTCTT [XGTACX_site1512],7.63 ± 0.59
15,ATAAAGTAAGAAGAAATAATGATTTTCATGGAAAAC [XGTACX_negctrl_site322],7.58 ± 0.87
16,TATCATCTTAATATCGTGCACATTTATAGAACGAAA [GTGCAC_site9992],11 ± 0.12
17,ATACCTCAAATTGATACACACAAAAAAAGTAAATTA [CACACA_site3134],7.71 ± 0.42
18,TTTTACTATACTTATGCACACAAGATAAATACATAT [CACACA_site5619],9.57 ± 0.057
19,CTATTTTAATATTTTACACACCATGTAAAATATATA [CACACA_site5732],7.97 ± 0.28

row,Sequence,gcPBM binding intensity (ln)
1,TATTTTTTTTCGTAATGTACATAAAAAATGCAAAAA [XGTACX_site8491],8.36 ± 0.057
2,TATATATATATAACAACACACACAGATCATAAAACT [CACACA_site8670],9.38 ± 0.43
3,ATTATATAATTTAATCGTACACAAATATTTGTTAGT [XGTACX_site5913],7.86 ± 0.38
4,TATTATTCCATGTGAAGTACAGAAATATAAATAAAT [XGTACX_site5106],7.93 ± 0.4
5,CTTTTAAAAAAATTCATGCACACGAAATAAAAAGCA [CACACA_site929],8.61 ± 0.67
6,CCATAATTATATGCCAGTACATATTTGTAACAAAAA [XGTACX_site851],7.9 ± 0.4
7,TTTATTTTTCATTGGGGTACACAAGTTTATTTTATT [XGTACX_site4263],8.36 ± 0.39
8,TAAGTAATAGTTTGTGCACACTCAAGTATATCATAT [CACACA_site4035],10.8 ± 0.28
9,CAAAATATTTTTATAACACACATATATAGAATGTGC [CACACA_site1145],7.65 ± 0.44
10,CATCCACATAGATGTACACACATATATATATATATA [CACACA_site5616],9.46 ± 0.66
11,ATATGTATATTTTTGATGTGCTTTTATTTGGTTATT [CACACA_negctrl_site626],8.1 ± 0.41
12,AAAAAAAATACATACACACACACACGCACATATATA [CACACA_site7645],8.03 ± 0.38
13,ATTTTTTTATAATCAACCCATTTCCTACATTTTTAT [CACACA_negctrl_site1237],7.9 ± 0.75
14,CTTCATAAAAATTGCACACATATAATAATGTACATA [CACACA_site2212],8.62 ± 0.17
15,ATATCTCAACATATCACACATATATATATATAATAT [CACACA_site5018],8.05 ± 0.52
16,AATAAATATAAATAAATAAATATATATATATATTTG [CACACA_negctrl_site1486],7.41 ± 0.3
17,GTTATTAAATAATTCACACACATATATAAATAAATA [CACACA_site7129],7.84 ± 0.45
18,ATAAAAATATATGAAACACACAGTTTCTATAAGAAA [CACACA_site4156],7.78 ± 0.15
19,ATATGTATATAATAAGAACACACATATATTTAATTT [CACACA_site8961],7.54 ± 0.63

row,Sequence,gcPBM binding intensity (ln)
1,TAATATACTATAAATACACACAAGTGTACATACTTC [CACACA_site983],7.79 ± 0.29
2,TTAAAAAGAGGTGACACACACATATAAATCTAAATC [CACACA_site3738],7.58 ± 0.75
3,TATTAAAAGGTGAGTACACACATATCTGAGTATATA [CACACA_site5192],7.8 ± 0.14
4,TACAATATAATTTAATGTACATGTGAATATATATAT [XGTACX_site4675],8.94 ± 0.14
5,TTGTGCTAAACAAAAAAAAATATATATAAAAAAATA [XGTACX_negctrl_site388],8.98 ± 0.28
6,TAAAACTTAATGTTTTGTACATATTCTTCTTTATTT [XGTACX_site4271],7.36 ± 0.61
7,AATCAAAAAGGAACCATAATATTACAACTATATATA [CACACA_negctrl_site381],7.48 ± 0.55
8,ATTATTATAGATAAAACACACAATTTTGTTTTCACA [CACACA_site7792],7.65 ± 0.59
9,TTAACAAAGAAACACACACACACACCCAAAAAAAAA [CACACA_site516],8.43 ± 0.21
10,GCCATAAAGATATATACACACATAAAAAAAAGTTAT [CACACA_site6674],7.79 ± 0.59
11,AAAAAAAAAATTAAATGTACATATATAATATATATA [XGTACX_site7245],8.19 ± 0.56
12,TTATATTTTATTATGTGTACGTATATAATATAATAT [XGTACX_site6230],8.18 ± 0.042
13,AAACAATTATTATATTGTACATATATTACATTATTA [XGTACX_site1089],7.45 ± 0.52
14,ACATGCAAGAAGAAATGTACTTAACATCTATATAGA [XGTACX_site7338],7.7 ± 0.53
15,ACTAAATAAATAAATATAATATATAAATATGTATGT [TGCATGCA_negctrl_site583],7.47 ± 0.47
16,GTATATATGTTTTATACACACATTAAAGGAAATATA [CACACA_site984],7.8 ± 0.57
17,CACAAACAGACAAACACACACACACGGACATACATA [CACACA_site6350],8 ± 0.41
18,TATAATATATAAAAATGTACACATAAATATAAGTAG [XGTACX_site665],8.23 ± 0.11

# Reference: the supplement of paper PMC11417369
